Source: US20110306057A1 (Dana-Farber, published 2011)
Blank lines part the entries; values can stand above or below the binder they belong to.

What was measured:
[1] = target: T1, wild type (WT) FLAG epitope-tagged version of PP2A Aβ (UniProt P30154 1-601); assay: anti-FLAG co-IP from HEK TER cells, immunoblot
T1 construct: also called wtPP2A Aβ; FLAG-tagged Aβ

[2] = target: T2, cancer-derived FLAG-tagged PP2A Aβ mutant L101P (UniProt P30154 1-601); assay: anti-FLAG co-IP from HEK TER cells, immunoblot, densitometry
T2 construct: Overexpressed in HEK TER cells

[3] = target: T3, cancer-derived FLAG-tagged PP2A Aβ mutant V448A (UniProt P30154 1-601); assay: as above
T3 construct: Overexpressed in HEK TER cells

[4] = target: T4, cancer-derived FLAG-tagged PP2A Aβ mutant L101P/V448A (UniProt P30154 1-601); assay: as above
T4 construct: Overexpressed in HEK TER cells

[5] = target: T5, cancer-derived FLAG-tagged PP2A Aβ mutant ΔE344-E388 (Homo sapiens (Human), UniProt P30154 2-601); assay: as above
T5 construct: Deletion of exon 9, in-frame deletion of 45 amino acids; Overexpressed in HEK TER cells; also called D344-388

binding result [1]: binds
binding result [2]: no binding
binding result [3]: no binding
binding result [4]: no binding
binding result [5]: no binding
B1: PP2A regulatory subunit B56α (other, UniProt Q15172 2-486, looked up)
chain: SSSSPPAGAASAAISASEKVDGFTRKSVRKAQRQKRSQGSSQFRSQGSQAELHPLPQLKDATSNEQQELFCQKLQQCCILFDFMDSVSDLKSKEIKRATLNELVEYVSTNRGVIVESAYSDIVKMISANIFRTLPPSDNPDFDPEEDEPTLEASWPHIQLVYEFFLRFLESPDFQPSIAKRYIDQKFVQQLLELFDSEDPRERDFLKTVLHRIYGKFLGLRAFIRKQINNIFLRFIYETEHFNGVAELLEILGSIINGFALPLKAEHKQFLMKVLIPMHTAKGLALFHAQLAYCVVQFLEKDTTLTEPVIRGLLKFWPKTCSQKEVMFLGEIEEILDVIEPTQFKKIEEPLFKQISKCVSSSHFQVAERALYFWNNEYILSLIEENIDKILPIMFASLYKISKEHWNPTIVALVYNVLKTLMEMNGKLFDDLTSSYKAERQREKKKELEREELWKKLEELKLKKALEKQNSAYNMHSILSNTSAE
notes: Endogenous protein found in anti-FLAG immune complexes by immunoblot

binding result [1]: binds
binding result [5]: no binding
B2: PP2A regulatory subunit B56ε (other)
chain: SSAPTTPPSVDKVDGFSRKSVRKARQKRSQSSSQFRSQGKPIELTPLPLLKDVPSSEQPELFLKKLQQCCVIFDFMDTLSDLKMKEYKRSTLNELVDYITISRGCLTEQTYPEVVRMVSCNIFRTLPPSDSNEFDPEEDEPTLEASWPHLQLVYEFFIRFLESQEFQPSIAKKYIDQKFVLQLLELFDSEDPRERDYLKTVLHRIYGKFLGLRAFIRKQINNIFLRFVYETEHFNGVAELLEILGSIINGFALPLKAEHKQFLVKVLIPLHTVRSLSLFHAQLAYCIVQFLEKDPSLTEPVIRGLMKFWPKTCSQKEVMFLGELEEILDVIEPSQFVKIQEPLFKQIAKCVSSPHFQVAERALYYWNNEYIMSLIEENSNVILPIMFSSLYRISKEHWNPAIVALVYNVLKAFMEMNSTMFDELTATYKSDRQREKKKEKEREELWKKLEDLELKRGLRRDGIIPT
notes: as for B1
